Reference: publication PMC4336329 (PLoS ONE, 2015)
About 14,000 (4.5%) of roughly 310,000 compounds showed an effect of 50% or more. The effect is printed as a negative number. Some of the results follow.

target: human ether-à-go-go-related gene (hERG) potassium channel (human, UniProt Q12809); assay: primary screen, population patch clamp on CHO cells stably expressing hERG
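Note: peak tail current of the secondary pulse compared with the same well before compound.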

Chain of human ether-à-go-go-related gene (hERG) potassium channel (Q12809 whole entry, looked up): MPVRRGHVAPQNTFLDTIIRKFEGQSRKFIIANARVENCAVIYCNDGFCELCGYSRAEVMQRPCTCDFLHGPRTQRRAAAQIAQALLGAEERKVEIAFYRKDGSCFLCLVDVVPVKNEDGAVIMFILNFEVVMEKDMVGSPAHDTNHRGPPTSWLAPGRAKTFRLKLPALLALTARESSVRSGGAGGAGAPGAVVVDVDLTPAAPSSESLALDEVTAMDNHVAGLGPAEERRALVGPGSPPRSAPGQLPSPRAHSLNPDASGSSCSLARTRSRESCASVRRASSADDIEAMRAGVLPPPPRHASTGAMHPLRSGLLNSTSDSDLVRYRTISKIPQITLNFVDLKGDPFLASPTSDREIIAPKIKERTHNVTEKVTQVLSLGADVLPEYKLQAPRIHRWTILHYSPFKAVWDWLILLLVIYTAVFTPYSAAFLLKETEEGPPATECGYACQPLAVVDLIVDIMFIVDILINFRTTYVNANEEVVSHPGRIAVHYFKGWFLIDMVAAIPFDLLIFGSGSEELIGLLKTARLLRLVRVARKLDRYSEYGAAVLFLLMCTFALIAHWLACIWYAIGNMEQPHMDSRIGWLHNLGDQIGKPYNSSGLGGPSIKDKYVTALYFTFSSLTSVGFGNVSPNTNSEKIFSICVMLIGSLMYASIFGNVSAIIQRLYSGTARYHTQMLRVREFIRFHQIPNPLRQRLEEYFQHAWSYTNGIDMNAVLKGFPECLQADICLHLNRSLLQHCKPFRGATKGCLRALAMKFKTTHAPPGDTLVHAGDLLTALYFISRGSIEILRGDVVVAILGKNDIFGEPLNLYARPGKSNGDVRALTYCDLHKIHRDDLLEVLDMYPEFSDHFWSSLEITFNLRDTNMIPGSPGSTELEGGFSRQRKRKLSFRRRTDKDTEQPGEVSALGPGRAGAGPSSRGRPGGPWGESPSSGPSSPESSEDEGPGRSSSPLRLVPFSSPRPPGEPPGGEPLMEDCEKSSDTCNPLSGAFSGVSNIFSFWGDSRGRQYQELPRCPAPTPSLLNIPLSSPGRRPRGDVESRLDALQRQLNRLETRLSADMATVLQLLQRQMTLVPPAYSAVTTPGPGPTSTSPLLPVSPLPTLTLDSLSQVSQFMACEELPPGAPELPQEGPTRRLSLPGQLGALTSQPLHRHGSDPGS

Structure (SMILES)	hERG current change (%, negative = inhibition) at 10uM [%]
OCC[C@@H]1C[C@@H](O)[C@H](O)[C@@]2(CCCc3ccccc3O2)O1	15.1
Cc1cccc(N(C)C(=O)c2cc(S(=O)(=O)N3CCCC3)cn2C)c1	-5.54
CCOc1cccc(OCCOCCn2cnc3ccccc3c2=O)c1	-7.83
O=C(NCc1ccco1)c1cc(S(=O)(=O)N2CCCCC2)ccc1Cl	-34.8
CCOc1ccc(S(=O)(=O)n2cc(-c3ccccc3)c(N)n2)cc1	5.5
COc1cccc(C2c3[nH]c4ccccc4c3C[C@H]3C(=O)N(c4ccccc4C(=O)N4CCCC4C(=O)O)C(=O)N23)c1 (some centres unmarked)	-4.3
O=C(CSc1nc2ccccc2c(=O)n1NC(=O)c1ccccc1)c1ccc(Cl)cc1	0.301
CCOC(=O)Cc1nnc(Nc2cccc(O)c2)c2ccccc12	-24.9
O=S(=O)(NCCc1ccccn1)c1cc(Cl)cc(Cl)c1O	-15.9
Cc1nc2sc(C(c3ccco3)N3CCc4ccccc4C3)c(O)n2n1 (centres unmarked)	15
CCCn1c(=N)c(C(=O)NCc2ccc3c(c2)OCO3)cc2c(=O)n3cccc(C)c3nc21	-76.5
CCCCNC(=O)CCc1nc2cccnc2n1Cc1ccccc1	-51.7
O=C(OCc1ccccc1)C1=NNC2C(=O)N(Cc3ccccc3)C(=O)C12 (centres unmarked)	16.2
COc1cccc(N(C(=O)CS(=O)CC(=O)Nc2ccc(F)cc2)C(C(=O)NC2CCCCC2)c2cccs2)c1 (centres unmarked)	2.24
CC1(C(=O)Nc2nnc(SCc3ccccc3)s2)Cc2ccccc2C(=O)O1 (centres unmarked)	-24.6
CCOC(=O)Cn1c(-c2cccnc2Cl)nc2cc(C)c(C)cc21	-11.8
CSc1nc(N)nc(SC2C=CCCC2)c1C#N (centres unmarked)	-21.3
Cc1ccc(NCc2nnc(SCC(=O)N3CCCCC3)n2CC2CCCO2)c(C)c1 (centres unmarked)	-5.62
CC(=O)c1ccc(N=C2SCCCN2C(=O)C2CCCC2)cc1	-2.8

Structure (SMILES)	hERG current change (%, negative = inhibition) at 10uM [%]
Cc1cc(S(=O)(=O)N2CCCC2)ccc1OCC(=O)NC1CCCC1	-3.56
Cc1cc(C)nc(N(C#N)Cc2ccc(Cl)cc2)n1	-8.48
COc1ccc(CCNC(=O)CCCN2C(=O)c3ccccc3C2=O)cc1OC	2.11
COc1ccc(CCNc2nc(C)nc3c2nnn3Cc2ccccc2)cc1	16.9
Cc1ccccc1CC(=O)Nc1ccc2c(C)cc(=O)oc2c1	-15.3
Clc1ccc(C2=CC(c3ccco3)n3ncnc3N2)cc1 (centres unmarked)	-36.4
CCOC(=O)c1cc2c(n(-c3ccc(C)cc3)c1=O)CCCC2=O	-45.4
COc1ccc(Oc2ccc(C(F)(F)F)cc2NC(=O)c2ccc(C)cc2)cc1	4.33
CCOC(=O)N1CCN(Cc2nc(-c3ccc(Cl)cc3)no2)CC1	-30.6
Cc1ccc(S(=O)(=O)N(C)C)cc1NC(=O)CCc1c[nH]c2ccccc12	-22.8
CCOC(=O)c1cccc(NC(=O)CCOc2ccccc2)c1	11.3
OCCc1c[nH]c2ccc(OCc3ccccc3)cc12	3.65
O=C(O)C1C2C=CC3(CN(Cc4ccccn4)C(=O)C13)O2 (centres unmarked)	3.43
COc1cnc(-c2ccccn2)nc1Oc1ccc(C(C)(C)C)cc1	-2.72
Cc1ccc(/C=N/NC(=O)c2nnn(-c3nonc3N)c2CN(C)C)s1	2.16
COC(=O)C1=C(C)N(CCCCCC(=O)O)C(=O)NC1c1ccccc1 (centres unmarked)	-2.04
COc1ccc(C(=O)Cc2ccc(F)cc2)c(OC)c1	-7.35
CCOC(=O)c1ccccc1NC(=O)COC(=O)c1cc([N+](=O)[O-])ccc1N1CCOCC1	-21.3
COC(=O)c1cccc(NC(N)=S)c1	14.1

Structure (SMILES)	hERG current change (%, negative = inhibition) at 10uM [%]
O=C(NC(=S)Nc1ccccc1N1CCCCC1)c1ccc(F)cc1	9.33
Cc1c(OC(C)C(=O)NCCCN2CCCC2=O)ccc2c3c(c(=O)oc12)CCCC3 (centres unmarked)	-6.3
CC(CN1CCOCC1)OC(=O)C(C)(c1ccccc1)c1ccccc1 (centres unmarked)	-8.05
Cc1ccc2nc(-c3cccnc3)cc(C(=O)Nc3ccc(F)cc3C)c2c1	-13.5
CCNC(=O)CC1C(=O)N(c2cccc(OC)c2)C(=O)N1CCOC (centres unmarked)	8.39
CC(NCc1ccc(N(C)C)cc1)C1CC2CCC1C2.Cl (centres unmarked)	-5.02
Cc1cc(NS(=O)(=O)c2ccc(NC(=O)C(C)Oc3cc(C)c(Cl)c(C)c3)cc2)no1 (centres unmarked)	-3.05
O=C1CC(c2ccccc2Cl)CC(O)=C1C=NCCCO (centres unmarked)	-1.74
c1ccc(C2OCC3(CO2)COC(c2ccccc2)OC3)cc1 (centres unmarked)	4.18
Cc1ccc(C(=O)Nc2cc([N+](=O)[O-])ccc2F)s1	0.853
CCOc1ccc2nc(NC(=O)CN3CCC(n4nnc5cc(C(F)(F)F)ccc54)CC3)sc2c1	7.59
O=C(O)CCNS(=O)(=O)c1ccc(Oc2ccccc2)cc1	0.639
Nc1c(-c2ccccc2)cnn1-c1cccc(C(F)(F)F)c1	1.64
Cc1cc(N2CCN(C)CC2)nc2ccc(NC(=O)CCC(=O)NCCCOC(C)C)cc12	21.5
CN(C)c1ccc(/C=N\S(=O)(=O)c2ccccc2)cc1	-15.7
CCCNC(=O)COC(=O)c1cc2c(=O)n3ccccc3nc2s1	2.01
CCN(CC)C(=O)C[n+]1cccc(/C=N/O)c1	21
S=C(Nc1cccnc1)N1CCCCC1	33.3
